# In the supplement of paper PMC10600219:
# Structures can show the parent of a compound that is named as a salt. In all, about 2,800 compounds were measured (“cell viability relative to vehicle”: median about 1.1, lowest 2% from about 0.19 on). This is one part of the list.
# System: NCI-H2228 parental
# Experiment: cell viability relative to vehicle (fraction of vehicle); NCI-H2228 is an ALK-positive lung cancer line and DTP means drug-tolerant persister; higher = less growth inhibition
# Conditions: 100 nM; treatment time 6 days
# Summary of the method: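 The 3114-agent TargetMol anti-cancer compound library was tested at 100 nM for 6 days on parental NCI-H2228 cells and on persister cells derived with 1000 nM of a targeted drug for 13 days. ATP readout by the CellTiter-Glo 3D Cell Viability Assay gave cell viability relative to DMSO vehicle-treated cells.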
row,Compound,cell viability
1,Nc1ccn([C@@H]2O[C@H](CO)[C@@H](O)[C@H]2O)c(=O)n1 [Cytidine],0.915
2,CC(C)CCC[C@@H](C)[C@H]1CC[C@H]2[C@@H]3CC=C4C[C@@H](O)CC[C@]4(C)[C@H]3CC[C@]12C [Cholesterol],1.15
3,CN(C)CCC(c1ccccc1)c1ccccn1 (centres undefined) [Pheniramine maleate],1.12
4,Cc1cccc(Nc2nc(-c3ccncc3)cs2)c1,0.833
5,Cn1cnc(N)c2ncnc1-2 [3-Methyladenine],1.07
6,CCN(CC)C(=O)N1CCN(C)CC1 [Diethylcarbamazine citrate],1.34
7,CCn1c(-c2nonc2N)nc2cnc(Oc3cccc(NC(=O)c4ccc(OCCN5CCOCC5)cc4)c3)cc21,1.19
8,CC[C@H](CC[C@@H](C)[C@H]1CC[C@H]2[C@@H]3CC=C4C[C@@H](O[C@@H]5O[C@H](CO)[C@@H](O)[C@H](O)[C@H]5O)CC[C@]4(C)[C@H]3CC[C@]12C)C(C)C [Sitogluside],1.17
9,CC[C@]1(O)C[C@@H]2CN(CCc3c([nH]c4ccccc34)[C@@](C(=O)OC)(c3cc4c(cc3OC)N(C)[C@H]3[C@@](O)(C(=O)OC)[C@H](OC(C)=O)[C@]5(CC)C=CCN6CC[C@]43[C@@H]65)C2)C1 [Vinblastine sulfate],0.319
10,CCc1cc(/C(C)=N/OCc2ccc(C3CCCCC3)c(C(F)(F)F)c2)ccc1CN1CC(C(=O)O)C1 [Siponimod],1.07
11,Cc1cc(CS(=O)(=O)c2ccccc2)cc(OCc2ccc(CN3CCC[C@@H]3CO)cc2)c1,1.1
12,Cc1c(C)c2c(c(C)c1O)CC[C@@](C)(CCC[C@H](C)CCC[C@H](C)CCCC(C)C)O2 [Vitamin E],1.1
13,CCN(CCCc1ccccc1)CCCc1ccccc1 [Alverine citrate],1.16
14,COc1cc2c(cc1OC)CN(CCc1ccc(NC(=O)c3cccc4c(=O)c5cccc(OC)c5[nH]c34)cc1)CC2 [Elacridar],1.03
15,Clc1ccc(COC(Cn2ccnc2)c2ccc(Cl)cc2Cl)cc1 (centres undefined) [Econazole],1.1
16,C[C@H](CCC(=O)NCC(=O)O)[C@H]1CC[C@H]2[C@@H]3[C@H](O)C[C@@H]4C[C@H](O)CC[C@]4(C)[C@H]3C[C@H](O)[C@]12C [Glycocholic acid],1.16
17,CO/N=C1\CN(c2nc3c(cc2F)c(=O)c(C(=O)O)cn3C2CC2)CC1CN (centres undefined) [Gemifloxacin mesylate],1
18,Clc1ccccc1C(c1ccccc1)(c1ccccc1)n1ccnc1 [Clotrimazole],1.17
19,NC(=O)NO [Hydroxyurea],1.13
20,Cc1ccccc1C(=O)N1CCc2cc(-c3nc(NC(=O)Cc4ccc5c(c4)OCO5)sc3C)ccc21,1.12
21,CC(C)(C)c1ccc(S(=O)(=O)NCc2ccc(C(=O)Nc3cccnc3)cc2)cc1,0.948
22,CC(C)=CCC/C(C)=C/COc1ccc2ccc(=O)oc2c1 [Auraptene],1

row,Compound,cell viability
1,O=S(=O)(O)CCSSCCS(=O)(=O)O [Dimesna],0.952
2,CO[C@H]1C(=O)[C@]2(C)[C@@H](OC)C[C@H]3OC[C@@]3(OC(C)=O)[C@H]2[C@H](OC(=O)c2ccccc2)[C@]2(O)C[C@H](OC(=O)[C@H](O)[C@@H](NC(=O)OC(C)(C)C)c3ccccc3)C(C)=C1C2(C)C [Cabazitaxel],0.2
3,C[C@@H]1CC[C@@]2(OC1)O[C@H]1C[C@H]3[C@@H]4CC=C5C[C@@H](O[C@@H]6O[C@H](CO)[C@@H](O)[C@H](O[C@@H]7O[C@H](CO)[C@@H](O)[C@H](O)[C@H]7O)[C@H]6O[C@@H]6O[C@@H](C)[C@H](O)[C@@H](O)[C@H]6O)CC[C@]5(C)[C@H]4CC[C@]3(C)[C@H]1[C@@H]2C [Gracillin],1.17
4,CCCC(C(=O)OCCN(CC)CC)(c1ccccc1)c1ccccc1 [Proadifen hydrochloride],0.924
5,CN(C)[C@@H](CCOc1cccc2ccccc12)c1ccccc1 [Dapoxetine HCl],1.16
6,CCCC(CCC)C(=O)O [Valproic acid sodium salt],1.03
7,COC[C@@H](c1ccc(C(F)(F)F)cc1)N1CCN(C2(C)CCN(C(=O)c3c(C)ncnc3C)CC2)C[C@@H]1C [Vicriviroc maleate],1.18
8,O=C(NC1CCNCC1)c1n[nH]cc1NC(=O)c1c(Cl)cccc1Cl,1.12
9,CC(C)c1noc(N2CCC(COc3ccc(-c4ccc(S(C)(=O)=O)cc4)nc3)CC2)n1,0.896
10,NCCC(=O)O [beta-Alanine],1.24
11,O=CN1CC/C(=C/c2ccc3c(c2)OCO3)C1=O,1.1
12,COc1cc2c[n+](C)c3c4cc5c(cc4ccc3c2cc1OC)OCO5 [Nitidine chloride],0.548
13,CC[C@H](Nc1ncnc2[nH]cnc12)c1nc2cccc(F)c2c(=O)n1-c1ccccc1 [Idelalisib],1.13
14,CC(C)(C)c1cc(/C=C(\C#N)C(N)=S)cc(C(C)(C)C)c1O [Tyrphostin AG 879],1.14
15,CC(C)=CCC[C@](C)(O[C@@H]1O[C@H](CO[C@@H]2O[C@H](CO)[C@@H](O)[C@H](O)[C@H]2O)[C@@H](O)[C@H](O)[C@H]1O)[C@H]1CC[C@]2(C)[C@@H]1[C@H](O)C[C@@H]1[C@@]3(C)CC[C@H](O[C@@H]4O[C@H](CO)[C@@H](O)[C@H](O)[C@H]4O)C(C)(C)[C@@H]3CC[C@]12C [Gypenoside XVII],0.981
16,CCC(=O)NCC[C@@H]1CCc2ccc3c(c21)CCO3 [Ramelteon],1.2
17,COC1=CC(=O)C[C@@H](C)[C@]12Oc1c(Cl)c(OC)cc(OC)c1C2=O [Griseofulvin],1.22
18,Oc1cccc(O)c1O [Pyrogallol],1.01
19,NS(=O)(=O)NCCNc1nonc1/C(=N/O)Nc1ccc(F)c(Br)c1 [Epacadostat],1.05
20,O=S(=O)(NCCNC/C=C/c1ccc(Br)cc1)c1cccc2cnccc12,1.15
21,COc1ccc(-c2coc3cc(O)cc(O)c3c2=O)cc1 [Biochanin A],1.12
22,N=C1S/C(=C\c2ccc(-c3ccc4c(c3)C(=O)NC4=O)o2)C(=O)N1c1ccc(Br)cc1 [Bioymifi],1.12
